Experimental data from paper PMC4242493.
The other results are listed elsewhere or left out. The list includes weakly bound sequences.

These sequences were tested against MaxL homodimer (UniProt P61244) (assay: universal protein-binding microarray (PBM)). Conditions: PBS-based mixture, 10 nM His-tagged protein dimer, 2% milk, 200 ng/uL BSA, 50 ng/uL salmon testes DNA, 0.02% TX-100; detection with Alexa 488 anti-His …; high values mean tight binding; most listed sequences are background and not binding sites; double strand, one strand shown.
Sequence of UniProt P61244 (P61244 whole entry): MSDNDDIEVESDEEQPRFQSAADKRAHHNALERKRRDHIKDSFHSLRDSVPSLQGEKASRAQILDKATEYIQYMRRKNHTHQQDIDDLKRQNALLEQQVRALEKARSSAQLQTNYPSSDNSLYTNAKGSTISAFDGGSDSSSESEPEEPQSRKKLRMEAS

| Sequence | binding signal (normalized occupancy) |
| --- | --- |
| AGAAGGAA | 0.0755 |
| GAAGTACA | 0.0746 |
| AGCCCCAG | 0.0695 |
| GATCAGTA | 0.076 |
| CCTAAGCA | 0.0713 |
| CTTACTCC | 0.0777 |
| CTAAGTTA | 0.0721 |
| CCGTATAA | 0.0756 |
| CAACAGTG | 0.0733 |
| AATTTCGC | 0.0705 |
| TAGCACGA | 0.0776 |
| CGTTGAGC | 0.0723 |
| AATGCTAA | 0.0733 |
| AAGGCATT | 0.0725 |
| GAACATCC | 0.0772 |
| CGGCAACC | 0.066 |
| ACTTGTAT | 0.0845 |
| CCTTCTCG | 0.0739 |
| GGCGAGAA | 0.0685 |
| AGTGGGTC | 0.0713 |
| ATGCAGAG | 0.0722 |
| TATCTGGA | 0.0789 |

| Sequence | binding signal (normalized occupancy) |
| --- | --- |
| GACGAACA | 0.0707 |
| CATCGAGG | 0.0773 |
| ACGCTCCG | 0.0727 |
| AAGAGATA | 0.0732 |
| CGCTGACG | 0.0714 |
| AACACAAA | 0.0735 |
| AGGGGCCA | 0.0738 |
| GGAGACGA | 0.0726 |
| CCGGAGAA | 0.0679 |
| GCTGATCA | 0.072 |
| TAGCATAA | 0.0826 |
| CTTAATTC | 0.0739 |
| GAATACCC | 0.0753 |
| AATCGTCA | 0.0757 |
| GTTACTAA | 0.0745 |
| CCACATCA | 0.0798 |
| CCCCCAAG | 0.0761 |
| GTTACGCA | 0.0747 |
| AGCGGGGA | 0.0718 |
| AGTGCCTC | 0.0729 |
| CAATTTAA | 0.076 |
| TGCATAAA | 0.0782 |

| Sequence | binding signal (normalized occupancy) |
| --- | --- |
| AACCAGCC | 0.0688 |
| GAGTAAAC | 0.074 |
| CGACTTTC | 0.0737 |
| AAGAGAAT | 0.0733 |
| ATCGCATA | 0.082 |
| CTCTCAAA | 0.0709 |
| GATCCCCA | 0.0799 |
| ACTCGTGG | 0.0955 |
| ATATGCAA | 0.0815 |
| ATGGTGCA | 0.0823 |
| AGTTAATG | 0.0796 |
| AGAAGGTC | 0.0713 |
| CGATATAG | 0.0758 |
| AGTGGACC | 0.0686 |
| AGGTGCCG | 0.0743 |
| CATAGTAA | 0.0803 |
| CGCATAGC | 0.0734 |
| GCTCTGAA | 0.0745 |
| ACCTCCAT | 0.0778 |
| CGGACGCA | 0.0735 |
| ACACGAGC | 0.0815 |
| GCACACTA | 0.0826 |

| Sequence | binding signal (normalized occupancy) |
| --- | --- |
| AGCCGGTC | 0.0683 |
| ACATGACT | 0.092 |
| GGTTGTTA | 0.0782 |
| CATGATCA | 0.087 |
| ACCTAAGA | 0.0773 |
| GTAAGATA | 0.0747 |
| ACACAGCA | 0.0858 |
| CCTAGTAA | 0.0723 |
| CAAGATCC | 0.0712 |
| AGGCTGGC | 0.0702 |
| AAGCCTTC | 0.0713 |
| GCAACGTA | 0.0759 |
| CGCGGCAG | 0.0743 |
| AACTTAAT | 0.0702 |
| AATGCTAG | 0.079 |
| ATTACGTA | 0.0796 |
| AATTATAA | 0.0729 |
| CACCTCTG | 0.0758 |
| ACCGGCAT | 0.0807 |
| AAATGGCC | 0.074 |
